# Assay results published in PubChem BioAssay AID651820 (National Center for Advancing Translational Sciences (NCATS), 2012).
# Values joined by “and” are separate entries in the source; they are usually repeats but may differ in a detail not shown here. Equal values may be shown once. The whole screen tested about 340,000 compounds, of which about 12,000 (3.5%) were called active. The shares of active, inactive and inconclusive entries below differ from those in the screen. Calls come from the whole dose curve; as a rule, active = well fitted inhibition curve with a large enough effect; inconclusive = small, poorly fitted or top-dose-only effect, or another doubt; inactive = no such curve, though single readings can be large or run the other way. Potencies beside an inconclusive call are fits to weak or partial responses and may not hold up.
# Assay: qHTS Assay for Inhibitors of Hepatitis C Virus (HCV)
# Conditions: Huh7.5.1 HCVcc-Cre (HCVcc is cell-culture hepatitis C virus) infection, luciferase reporter, 44 h; activity change, negative = inhibition: at 41.8 µM (top of the series) unless noted
# Outline: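 1,000 cells/well; 4 h culture; + compound; + HCVcc-Cre (~0.5 moi); 44 h; luciferase substrate, RT 15 min; read 15 sec.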
# % is set by controls: 0 for no effect and ±100 for the full control effect; potency is the fitted concentration of half-maximal effect; tags give direction and shape of the fitted curve.
SMILES,Potency,"activity change, negative = inhibition"
N#Cc1cnn2c1nc(N1CCOCC1)c1ccccc12,"inconclusive: 3.55 µM [inhibitor, full curve]",–
COC(=O)c1cc2occc2n1CC(=O)Nc1ccc(C)cc1C,"inconclusive: 31.6 µM [inhibitor, single point]",–
C=CCN1C(=O)c2ccccc2Sc2ccc(C(=O)N3CCN(C)CC3)cc21,"inconclusive: 2 µM [inhibitor, single point]",–
Cc1ccc(Cl)cc1N1CCN(C(=O)COc2ccc3c(c2)CCC3)CC1,"inconclusive: 20 µM [inhibitor, single point]",–
Cc1ccc(N2CC(O)(c3cccs3)[N+]3=C2CCCC3)cc1 (configuration not stated),inactive,–
O=C1CC(N2CCN(Cc3ccccc3)CC2)C(=O)N1 (configuration not stated),inactive,–
COc1ccc(C(=O)NNC(=S)NC(=O)c2ccccc2)cc1,"inconclusive: 10 µM [inhibitor, partial curve]",–
CCN(CC)C1CCN(C(=O)c2cc(COc3ccc(F)cc3Cl)on2)C1 (configuration not stated),"inconclusive: 31.6 µM [inhibitor, single point]",–
COCCN(C(=O)Cc1cccs1)C(C(=O)NCc1ccc(OC)cc1)c1ccc(C)cc1 (configuration not stated),"inconclusive: 35.5 µM [inhibitor, partial curve, poor fit]",–
Cc1ccc(-n2nc3ccc(NC(=O)/C=C/c4ccco4)cc3n2)cc1,"inconclusive: 3.55 µM [inhibitor, full curve, poor fit]",–
COc1ccc(Cl)cc1-c1nc(-c2ccc(NC(=O)c3ccncc3)cc2)no1,"inconclusive: 11.2 µM [inhibitor, partial curve, poor fit]",–
COc1ccc(CCNC(=O)CSc2nnc(CNc3ccc(Cl)cc3)o2)cc1OC,"inconclusive: 14.1 µM [inhibitor, single point] and inconclusive: 11.2 µM [inhibitor, partial curve]",–
O=C1C2C3C=CC(C3)C2C(=O)N1c1cccc2cccnc12 (configuration not stated),inactive,–
OC(COC(c1ccccc1)c1ccccc1)CN1CCN(c2cccc(Cl)c2)CC1 (configuration not stated),"inconclusive: 20 µM [inhibitor, single point]",–
O=C(C1CCN(C2CCN(Cc3ccc4c(c3)CCO4)CC2)CC1)N1CCOCC1,"inconclusive: 10 µM [inhibitor, partial curve]",–
COc1cc2c(cc1NC(=O)CSc1ccccc1)oc1ccccc12,"inconclusive: 10 µM [inhibitor, partial curve]",–
O=C1[C@H]2[C@@H](c3ccc(Cl)cc3)N3C(=O)N(c4cccc(Cl)c4)C(=O)[C@@]3(Cc3ccc(Cl)cc3)[C@H]2C(=O)N1C1CCCCC1,inactive,–
Cc1ccc(CSc2nnc(-c3cccc(S(=O)(=O)N4CCOCC4)c3)n2C2CCCC2)cc1,"inconclusive: 10 µM [inhibitor, partial curve]",–
CCOC(=O)c1ccccc1NC(=O)c1cccs1,"inconclusive: 8.91 µM [inhibitor, partial curve, poor fit]",–
O=C(N/N=C/c1cc(Br)ccc1O)c1cccc(N2CCCC2=O)c1,"inconclusive: 31.6 µM [inhibitor, single point]",–
O=C(Nc1cccc(F)c1)c1cccnc1NCCc1ccccc1,"inconclusive: 3.98 µM [inhibitor, full curve]",–
O=C(Nc1cccc(F)c1)NC1(C(=O)N2CCC(O)CC2)CCCCC1,inactive,–
CCN(CC)c1ccc(/C=N/N2CCN(Cc3ccc(C)cc3C)CC2)c(O)c1,inactive,–

SMILES,Potency,"activity change, negative = inhibition"
COc1ccc(Br)cc1S(=O)(=O)n1nc(C)cc1C,"inconclusive: 31.6 µM [inhibitor, single point]",–
C[C@H](CO)N1C[C@H](C)[C@@H](CN(C)Cc2ccncc2)Oc2c(NS(=O)(=O)c3ccc(F)cc3)cccc2C1=O,inactive,–
COc1ccc([N+](=O)[O-])cc1NC(=O)c1ccccc1SC,"inconclusive: 2.82 µM [inhibitor, full curve, poor fit]",–
COc1ccc(NC(=O)CSc2ccc3ccccc3c2)cc1S(=O)(=O)N1CCCCC1,active: 5.01 µM,–
COc1ccc(OC)c(NC(=O)c2ccc3c(c2)CCN3S(C)(=O)=O)c1,"inconclusive: 20 µM [inhibitor, single point]",–
COc1ccc(-n2nc(C(=O)NCc3ccco3)c3c4ccccc4n(C)c3c2=O)cc1,inactive,–
CC(C)c1ccc(OCC(=O)NNC(=S)NC(=O)c2ccco2)c(Br)c1,"inconclusive: 11.2 µM [inhibitor, single point]",–
Cc1cccc(Nc2nc(N)nc(CCl)n2)c1,active: 3.16 µM,–
O=C(Cc1ccsc1-c1ccccc1)NO,active: 10 µM,–
COc1ccc(/C=C2\Oc3ccccc3C2=O)cc1,"inconclusive: 1.12 µM [inhibitor, partial curve]",–
COc1cc(S(=O)(=O)NCc2ccncc2)ccc1Br,"inconclusive: 1.26 µM [inhibitor, full curve]",–
c1ccc(COc2cccc(CNn3cnnc3)c2)cc1,inactive,–
C/C(=N\N1C(=O)c2ccccc2NC1c1ccco1)c1ccccc1O (configuration not stated),active: 3.55 µM,–
CC(C)=CC(=O)O[C@H]1[C@@H]2[C@H](C)C(=O)O[C@@H]2C[C@@H](C)[C@@H]2[C@@H](O)CC(=O)[C@]21C,inactive,–
Cc1ccc(S(=O)(=O)N2CCCCC2)cc1NC(=S)NC(=O)c1ccco1,"inconclusive: 14.1 µM [inhibitor, partial curve]",–
COc1c(C(=O)NNC(=O)c2ccccc2Cl)csc1Br,inactive,–
COc1ccc(CN2[C@@H](CC(C)=O)c3ccc(/C=C/C(C)=O)cc3S2(=O)=O)cc1,"inconclusive: 11.2 µM [inhibitor, single point]",–
C=CC[C@@H](CC(=O)N[C@@H](CO)Cc1ccccc1)C(=O)N[C@H](COC(=O)[C@@H](CC=C)CC(=O)OC(C)(C)C)Cc1c[nH]c2ccccc12,"inconclusive: 31.6 µM [inhibitor, single point]",–
COc1ccc(CCNC(=O)COc2ccc(C)nc2[N+](=O)[O-])cc1,inactive,–
CCN(C[C@H]1N[C@@](CC)(C(=O)OC)[C@H]2C(=O)N(Cc3ccccc3)C(=O)[C@@H]12)S(=O)(=O)c1ccc(C(C)(C)C)cc1,inactive,–
N=c1c(-c2nc3ccccc3[nH]2)cc(C(=O)c2ccco2)nn1-c1ccccc1,active: 7.94 µM,–
O=C(CN1C(=O)CSc2cc(S(=O)(=O)N3CCCCCC3)ccc21)NCCc1ccccc1,"inconclusive: 3.55 µM [inhibitor, full curve]",–
CCc1nc(Nc2cccc(OC)c2)c2oc3ccccc3c2n1,"inconclusive: 31.6 µM [inhibitor, single point]",–

SMILES,Potency,"activity change, negative = inhibition"
Cc1ccccc1C(CC(=O)c1cccs1)C(C#N)C#N (configuration not stated),"inconclusive: 31.6 µM [inhibitor, single point]",–
Cc1cc(=O)c2cc(Cl)ccc2[nH]1,–,inactive: -11.9% [at 8.37 µM]
Cc1ccc(SCCC(=O)N/N=C/c2ccccc2O)cc1,"inconclusive: 22.4 µM [inhibitor, single point]",–
CC(C)(C)c1ccc(C(=O)N2CCC(=O)N(C(COCc3ccccc3)Cc3ccccc3)CC2)cc1 (configuration not stated),"inconclusive: 31.6 µM [inhibitor, single point]",–
CCCn1c2ccccc2c2nnc(SCCN3CCOCC3)nc21,"inconclusive: 31.6 µM [inhibitor, single point]",–
O=C(NCc1ccccn1)c1cc(-c2ccc(Cl)cc2)oc1C(F)(F)F,"inconclusive: 10 µM [inhibitor, single point]",–
C=CC(COCc1ccccc1)N(CC(=O)OC)S(=O)(=O)c1cc(Br)ccc1OC (configuration not stated),"inconclusive: 5.62 µM [inhibitor, single point]",–
COc1ccc(OC)c(NC(=O)C(=O)N/N=C(\C)CC(=O)Nc2ccc(Cl)cn2)c1,"inconclusive: 31.6 µM [inhibitor, single point]",–
COc1ccc(-c2cc(=O)oc3cc(OCC(=O)NCC4CCC(C(=O)O)CC4)ccc23)cc1 (configuration not stated),inactive,–
O=C(NCc1ccccc1)C1=C[C@H](c2ccc(Br)cc2)C[C@H](OCCCCO)O1,inactive,–
COc1ccccc1CNC(=O)c1cc(-c2ccccc2C)n(CC2CC(c3cccc([N+](=O)[O-])c3)=NO2)n1 (configuration not stated),"inconclusive: 2.51 µM [inhibitor, full curve]",–
COc1ccc(OC)c(CN2CCN(C(=O)c3ccc(C)c(S(=O)(=O)Nc4ccccc4OC)c3)CC2)c1,"inconclusive: 31.6 µM [inhibitor, single point]",–
COc1ccccc1CNC(=O)C1CCCC1,"inconclusive: 5.62 µM [inhibitor, single point]",–
CCCCN(CC)S(=O)(=O)c1ccc(C(=O)Nc2nnc(-c3cccs3)o2)cc1,"inconclusive: 10 µM [inhibitor, partial curve]",–
Cc1ccc(S(=O)(=O)N2CCc3ccccc3CC2)cc1,"inconclusive: 10 µM [inhibitor, partial curve]",–
CCCC(c1nnnn1Cc1ccco1)N1CCN(C2CCCC2)CC1 (configuration not stated),inactive,–
CCc1nnc(SCC(=O)Nc2ccc(N3CCN(S(C)(=O)=O)CC3)cc2)o1,inactive,–
Cc1cc(C)c2c(N)c(C(=O)NN3CC(=O)N(c4ccccc4F)CC3=O)sc2n1,inactive,–
COc1cccc(NC(=O)CSc2nc3ccccc3c3nc4ccccc4n23)c1,"inconclusive: 3.98 µM [inhibitor, single point]",–
Cc1ccc2[nH]c(=O)c(CN(CCCN(C)C)C(=S)NCCc3ccccc3)cc2c1,"inconclusive: 25.1 µM [inhibitor, single point]",–
CCCOc1c(Br)cc(C(N)=O)cc1OCC,"inconclusive: 10 µM [inhibitor, partial curve]",–
